From the antibiotic and cytotoxicity screens of Wong et al. (2023)
The list shows a part of the results.

System: HSkMC (human skeletal muscle cells)
Test: cytotoxicity call (relative viability < 0.9)
Conditions: 10 µM

SMILES | cytotoxicity call
Cc1cccc(C)c1NC(=O)c1ccccc1C(=O)O | inactive
C[C@H]1CN([C@@H](C)CO)C(=O)c2c(c3ccccc3n2C)-c2ccccc2CO[C@@H]1CN(C)C(=O)Nc1cccc(Cl)c1Cl | active
CC(C)(C)[S@](=O)N1Cc2cc(C(=O)NCCc3ccncc3)nc(-c3cccc(-c4ccc(C#N)cc4)c3)c2[C@@H]1CCO | inactive
C[C@H](CO)N1C[C@H](C)[C@H](CN(C)C(=O)NC2CCCCC2)Oc2ccc(NC(=O)Nc3ccc(C(F)(F)F)cc3)cc2C1=O | inactive
Cc1noc(C)c1NC(=O)Nc1ccc2c(c1)C(=O)N([C@H](C)CO)C[C@H](C)[C@@H](CN(C)S(=O)(=O)c1cccs1)OCCCC[C@@H](C)O2 | inactive
Cc1noc(C)c1S(=O)(=O)Nc1ccc2c(c1)CC(=O)N([C@H](C)CO)C[C@H](C)[C@@H](CN(C)C(=O)NC(C)C)O2 | inactive
CC(C)NC(=O)N[C@@H]1CC[C@H](CCN)O[C@H]1CO | inactive
C[C@H](CO)N1C[C@H](C)[C@@H](CN(C)CC2CC2)Oc2ccc(NS(=O)(=O)c3cccs3)cc2CC1=O | inactive
C[C@@H]1CN([C@@H](C)CO)C(=O)c2cc(NS(=O)(=O)c3cccs3)ccc2O[C@@H]1CN(C)Cc1ccncc1 | inactive
C[C@@H]1CN([C@H](C)CO)C(=O)CCCn2nncc2CO[C@@H]1CN(C)C(=O)Nc1ccnc(N2CCOCC2)c1 | inactive
C=C(C)C1CCC2(C)CCC3(C)C(CCC4C5(C)CCC(OC(C)=O)C(C)(C)C5CCC43C)C12 (configuration not stated) | inactive
C[C@@H]1CN([C@H](C)CO)C(=O)c2cc(NC(=O)Cc3cn(C)c4ccccc34)ccc2O[C@@H]1CN(C)CC1CCCCC1 | inactive
